From the supplement of paper PMC4894684
Counter-ions that a name gives are not always drawn. ± gives the standard deviation of the averaged measurements. In all, about 1,000 compounds went through this assay and about 15 (2%) showed an effect of 50% or more. The list shows a part of the results.

Each compound was assayed on HFF (assay: uninfected host cell viability relative to vehicle control; higher = less host cell toxicity). Settings: 5 µM; 72 h; oxygen 21 %.
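Note: confluent HFF monolayers, run in parallel with the Toxoplasma growth screen as a host toxicity counterscreen.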

Row | Compound | uninfected host cell viability
1 | O=C1CN=C(c2cccc(Br)c2)c2oc3ccccc3c2N1 | 96.8 ± 3.9%
2 | CN1C[C@H](CNC(=O)OCc2ccccc2)C[C@@H]2c3cccc4c3c(cn4C)C[C@H]21 [Metergoline] | 86.8 ± 1.7%
3 | CCCN1CCC[C@@H]2Cc3n[nH]cc3C[C@H]21 [(-)-Quinpirole hydrochloride] | 86.7 ± 3.7%
4 | CCC(Oc1ccc(Cl)cc1)C(=O)OC1C[C@H]2CC[C@@H](C1)N2C (stereo not given in full) [SM-21 maleate] | 83.9 ± 0.85%
5 | CC12NC(Cc3ccccc31)c1ccccc12 (single isomer, unassigned; (+)) [(+)-MK 801 maleate] | 85.9 ± 2.7%
6 | COC1(C[S@+]([O-])c2ccccc2)CCN(CCc2c[nH]c3ccc(F)cc23)CC1 | 80.8 ± 2.7%
7 | Cc1nnc2n1-c1sc(CCC(=O)N3CCOCC3)cc1C(c1ccccc1Cl)=NC2 | 86.4 ± 0.97%
8 | CCC[C@@H]1CC2=CC(=O)CC[C@]2(C)[C@H]2CC[C@@]3(C)[C@@H](CC[C@@]3(O)CCC(=O)O)[C@H]12 | 98.1 ± 1.5%
9 | c1ccc2c(c1)OCC(C1=NCCN1)O2 (stereo not given) [Idazoxan hydrochloride] | 89.1 ± 3%
10 | c1ccc(C2CNCc3ccccc32)cc1 (stereo not given) [4-Phenyl-1,2,3,4-tetrahydroisoquinoline hydrochloride] | 92.6 ± 6.4%
11 | NC(C(=O)O)c1nn[nH]n1 (racemic) [(RS)-(Tetrazol-5-yl)glycine] | 86.1 ± 2.1%
12 | CC(=O)N1CC[N+](C)(C)CC1 [4-Acetyl-1,1-dimethylpiperazinium iodide] | 95 ± 3.1%
13 | CC[C@@H](CO)NC(=O)[C@@H]1C=C2c3cccc4c3c(cn4C)C[C@H]2N(C)C1 [Methysergide maleate] | 81.2 ± 3.8%
14 | COc1cc2c(c(OC)c1OC)-c1ccc(OC)c(=O)cc1[C@@H](NC(C)=O)CC2 [Colchicine] | 76.5 ± 1.7%
15 | C[N+]1(C)CCc2cc3c(cc2[C@H]1[C@@H]1OC(=O)c2c1ccc1c2OCO1)OCO3 [(-)-Bicuculline methochloride] | 94.2 ± 1.5%
16 | C[N+]1(C)CCc2cc3c(cc2[C@H]1[C@@H]1OC(=O)c2c1ccc1c2OCO1)OCO3 [(-)-Bicuculline methiodide] | 95.12 ± 0.22%
17 | CN1CC[C@@H]2CN3CCc4cccc(c43)[C@@H]2C1 [SDZ SER 082 fumarate] | 86.07 ± 0.53%
18 | O=c1[nH]oc2c1CCNC2 [THIP hydrochloride] | 86.9 ± 2.3%
19 | CN1[C@@H]2CC[C@H]1C[C@@H](OC(=O)c1cc(Cl)cc(Cl)c1)C2 | 85.4 ± 2.2%
20 | CNCCc1cnc[nH]1 [N α-Methylhistamine dihydrochloride] | 87 ± 1.2%
21 | O=C(O)c1nn(Cc2ccc(Cl)cc2Cl)c2ccccc12 [Lonidamine] | 93.5 ± 2.3%
22 | CN(C)c1ccc(/C=C2\CCCN=C2c2cccnc2)cc1 [DMAB-anabaseine dihydrochloride] | 94.4 ± 2.6%
23 | CCC1(C2=NCCN2)Cc2ccccc2O1 (stereo not given) [Efaroxan hydrochloride] | 85.9 ± 3%
24 | CC[C@@H](CO)NC(=O)[C@@H]1C=C2c3cccc4[nH]cc(c34)C[C@H]2N(C)C1 [Methylergometrine maleate] | 86.3 ± 2.3%
25 | CCOC(=O)c1ncn2c1[C@@H]1CCCN1C(=O)c1cc(OC)ccc1-2 | 83.2 ± 2.8%

Row | Compound | uninfected host cell viability
26 | NC(N)=Nc1ccc2[nH]c3c(c2c1)C[C@@]1(O)[C@H]2Cc4ccc(O)c5c4[C@@]1(CCN2CC1CC1)[C@H]3O5 [GNTI dihydrochloride] | 81.96 ± 0.66%
27 | CN1C2CCC1CC(OC(c1ccccc1)c1ccc(Cl)cc1)C2 (stereo not given) | 76.9 ± 5.6%
28 | CN1CCc2cc3c(cc2C1C1OC(=O)c2c1ccc1c2OCO1)OCO3 (single isomer, unassigned; (+)) [(+)-Bicuculline] | 87.1 ± 1.3%
29 | CCOC(=O)c1cncn1[C@H](C)c1ccccc1 [Etomidate] | 93.19 ± 0.22%
30 | Cc1ncsc1CCCl [Chlormethiazole hydrochloride] | 97.6 ± 1.6%
31 | O=C(CCCN1CCC2(CC1)C(=O)NCN2c1ccccc1)c1ccc(F)cc1 [Spiperone hydrochloride] | 85.6 ± 2.4%
32 | CCCCC1(C2CCCC2)Cc2cc(OCCCC(=O)O)c(Cl)c(Cl)c2C1=O (stereo not given) | 93.3 ± 5%
33 | Fc1ccc(C(OCCN2CCN(C/C=C/c3ccccc3)CC2)c2ccc(F)cc2)cc1 | 82 ± 0.94%
34 | O=c1cccc2n1C[C@@H]1CNC[C@H]2C1 [(-)-Cytisine] | 88.1 ± 0.92%
35 | N[C@@H]1C[C@H]1c1ccccc1 [Tranylcypromine hydrochloride] | 89.4 ± 2.9%
36 | O[C@H]1[C@H](O)[C@@H](O)CN2CC[C@H](O)[C@H]12 [Castanospermine] | 82.95 ± 0.65%
37 | O=C(O)C1=CCCN(CCOC(c2ccc(C(F)(F)F)cc2)c2ccc(C(F)(F)F)cc2)C1 [CI 966 hydrochloride] | 87.3 ± 2%
38 | CN1[C@@H]2C[C@@H](OC(=O)[C@H](CO)c3ccccc3)C[C@H]1[C@@H]1O[C@@H]12 [Scopolamine hydrobromide] | 92.2 ± 2.3%
39 | CC(=O)[C@H]1CC[C@H]2[C@@H]3CC[C@H]4C[C@](C)(O)CC[C@]4(C)[C@H]3CC[C@]12C [Ganaxolone] | 95 ± 1.5%
40 | O=C1NC(=O)c2c1c1c3ccccc3n3c1c1c2c2ccccc2n1[C@H]1CC[C@@H]3O1 | 39.2 ± 11%
41 | NC(=S)N/N=C/c1coc2ccccc2c1=O.[Cl][Cu][Cl] | 98.2 ± 1.8%
42 | Cc1onc(O)c1CC(N)C(=O)O (racemic) | 98.2 ± 3.1%
43 | Cc1onc(O)c1CC(N)C(=O)O (racemic) [(RS)-AMPA hydrobromide] | 84.6 ± 0.87%
44 | Oc1ccc2c3c1O[C@H]1c4[nH]c5ccccc5c4C[C@@]4(O)[C@@H](C2)N(CC2CC2)CC[C@]314 [Naltrindole hydrochloride] | 81.09 ± 0.49%
45 | Cc1cc(C)cc(C(=O)OC2C[C@H]3CC[C@@H](C2)N3C)c1 (stereo not given in full) [Tropanyl-3,5-dimethylbenzoate] | 86.53 ± 0.39%
46 | S=C=Nc1cccc(C2(N3CCCCC3)CCCCC2)c1 [Metaphit] | 82.9 ± 1%
47 | O=C1Nc2ccccc2C2(CCN(CCc3ccc(C(F)(F)F)cc3)CC2)O1 | 87.7 ± 5.5%
48 | COC(=O)[C@@H](N)CCCNC(=N)N[N+](=O)[O-] [L-NAME hydrochloride] | 95.8 ± 1.7%
49 | NCC(O)c1ccc(O)cc1 (stereo not given) [Octopamine hydrochloride] | 97 ± 3.6%
50 | CCCN(CCC)C1Cc2cc(OC)c(OC)cc2C1 | 78.55 ± 0.26%
